Test results as given in the supplement of paper PMC9151546.
Many values rest on one well or one pass, so single values are uncertain.

Experiments:
CHO-K1 [1] = assay: relative survival (nuclei to bead ratio vs DMSO control) (% of vehicle control); higher = more surviving cells
CHO-K1 [2] = assay: micronucleus frequency (% of nucleated events); higher = more micronuclei (genotoxic)
CHO-K1 [3] = assay: hypodiploid nuclei frequency (% of nucleated events); higher = more hypodiploid events (aneugenic)
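Wherever hypodiploid nuclei frequency (% of nucleated events) is given: hypodiploid nuclei gated on a flow cytometer with 488 nm excitation after SYTOX Green staining, cultures at 37 °C, positive controls vinblastine without S9 and cyclophosphamide with S9.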
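Wherever micronucleus frequency (% of nucleated events) is given: cells lysed with nuclei stained by SYTOX Green, then micronucleus-gated events counted against nucleated events by flow cytometry with 488 nm excitation.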
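Wherever relative survival (nuclei to bead ratio vs DMSO control) is given: Lysed-cell nuclei stained with SYTOX Green and counted against counting beads by flow cytometry at 488 nm excitation, with vinblastine (no S9) and cyclophosphamide (plus S9) as positive controls.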

C[C@]12C=CC(=O)C=C1CC[C@H]1[C@@H]3C[C@@H](O)[C@](O)(C(=O)CO)[C@@]3(C)C[C@H](O)[C@@]12F [Triamcinolone]
Details	hypodiploid nuclei frequency, CHO-K1 [3] [%]	micronucleus frequency, CHO-K1 [2] [%]	relative survival, CHO-K1 [1]
concentration: 4.5 (µM), S9 metabolic activation: with S9, exposure time: 3-4 hours	0.24	1.1	75.5
concentration: 4.5 (µM), S9 metabolic activation: without S9, exposure time: 24 hours	0.48	1.14	93.6
concentration: 5.63 (µM), S9 metabolic activation: with S9, exposure time: 3-4 hours	0.22	1.64	81.1
concentration: 5.63 (µM), S9 metabolic activation: without S9, exposure time: 24 hours	0.42	1.02	120
concentration: 7.04 (µM), S9 metabolic activation: with S9, exposure time: 3-4 hours	0.22	1.26	78.6
concentration: 7.04 (µM), S9 metabolic activation: without S9, exposure time: 24 hours	0.6	1.3	97.9
concentration: 8.8 (µM), S9 metabolic activation: with S9, exposure time: 3-4 hours	0.34	1.52	82.2
concentration: 8.8 (µM), S9 metabolic activation: without S9, exposure time: 24 hours	0.54	1.16	90.1
concentration: 11 (µM), S9 metabolic activation: with S9, exposure time: 3-4 hours	0.16	0.84	97.7
concentration: 11 (µM), S9 metabolic activation: without S9, exposure time: 24 hours	0.52	1.12	91.1
concentration: 13.7 (µM), S9 metabolic activation: with S9, exposure time: 3-4 hours	0.32	1.16	101
concentration: 13.7 (µM), S9 metabolic activation: without S9, exposure time: 24 hours	0.6	1.4	111
concentration: 17.2 (µM), S9 metabolic activation: with S9, exposure time: 3-4 hours	0.28	1.52	97.4
concentration: 17.2 (µM), S9 metabolic activation: without S9, exposure time: 24 hours	0.4	1.12	97.9
concentration: 21.5 (µM), S9 metabolic activation: with S9, exposure time: 3-4 hours	0.28	1.54	95.5
concentration: 21.5 (µM), S9 metabolic activation: without S9, exposure time: 24 hours	0.46	1.14	90.6
concentration: 26.8 (µM), S9 metabolic activation: with S9, exposure time: 3-4 hours	0.22	1.06	110
concentration: 26.8 (µM), S9 metabolic activation: without S9, exposure time: 24 hours	0.76	1.42	97.9
concentration: 33.6 (µM), S9 metabolic activation: with S9, exposure time: 3-4 hours	0.34	1.14	96.5
concentration: 33.6 (µM), S9 metabolic activation: without S9, exposure time: 24 hours	0.58	1.46	132
concentration: 41.9 (µM), S9 metabolic activation: with S9, exposure time: 3-4 hours	0.36	1.04	97.9
concentration: 41.9 (µM), S9 metabolic activation: without S9, exposure time: 24 hours	0.7	1.46	124
concentration: 52.4 (µM), S9 metabolic activation: with S9, exposure time: 3-4 hours	0.26	1.04	92.3
concentration: 52.4 (µM), S9 metabolic activation: without S9, exposure time: 24 hours	0.82	1.36	88.7
concentration: 65.5 (µM), S9 metabolic activation: with S9, exposure time: 3-4 hours	0.3	1.48	108
concentration: 65.5 (µM), S9 metabolic activation: without S9, exposure time: 24 hours	0.9	1.28	109
concentration: 81.9 (µM), S9 metabolic activation: with S9, exposure time: 3-4 hours	0.34	0.98	96
concentration: 81.9 (µM), S9 metabolic activation: without S9, exposure time: 24 hours	0.62	1.16	107
concentration: 102 (µM), S9 metabolic activation: with S9, exposure time: 3-4 hours	0.24	1.3	105
concentration: 102 (µM), S9 metabolic activation: without S9, exposure time: 24 hours	0.74	1.3	108
concentration: 128 (µM), S9 metabolic activation: with S9, exposure time: 3-4 hours	0.16	1.18	85.8
concentration: 128 (µM), S9 metabolic activation: without S9, exposure time: 24 hours	0.78	1.48	97.9
concentration: 160 (µM), S9 metabolic activation: with S9, exposure time: 3-4 hours	0.16	0.96	97.4
concentration: 160 (µM), S9 metabolic activation: without S9, exposure time: 24 hours	1	1.6	93.1
concentration: 200 (µM), S9 metabolic activation: with S9, exposure time: 3-4 hours	0.14	1.72	80.7
concentration: 200 (µM), S9 metabolic activation: without S9, exposure time: 24 hours	0.86	1.88	94.1
